The supplement of paper PMC3334620
Whole data set: some 33,000 sequences, median “E-score (-0.5 to 0.5)” near -0.054, cut for the highest 2% near 0.35. The list shows a part of the results.

molecular target: T1, Stb5 (UniProt P38699); assay: PBM E-score (8-mer binding enrichment) (E-score (-0.5 to 0.5)); higher = stronger / more preferred TF binding; most listed sequences are background and not binding sites; details: protein concentration: 200 nM; construct: GST-full length
T1 sequence: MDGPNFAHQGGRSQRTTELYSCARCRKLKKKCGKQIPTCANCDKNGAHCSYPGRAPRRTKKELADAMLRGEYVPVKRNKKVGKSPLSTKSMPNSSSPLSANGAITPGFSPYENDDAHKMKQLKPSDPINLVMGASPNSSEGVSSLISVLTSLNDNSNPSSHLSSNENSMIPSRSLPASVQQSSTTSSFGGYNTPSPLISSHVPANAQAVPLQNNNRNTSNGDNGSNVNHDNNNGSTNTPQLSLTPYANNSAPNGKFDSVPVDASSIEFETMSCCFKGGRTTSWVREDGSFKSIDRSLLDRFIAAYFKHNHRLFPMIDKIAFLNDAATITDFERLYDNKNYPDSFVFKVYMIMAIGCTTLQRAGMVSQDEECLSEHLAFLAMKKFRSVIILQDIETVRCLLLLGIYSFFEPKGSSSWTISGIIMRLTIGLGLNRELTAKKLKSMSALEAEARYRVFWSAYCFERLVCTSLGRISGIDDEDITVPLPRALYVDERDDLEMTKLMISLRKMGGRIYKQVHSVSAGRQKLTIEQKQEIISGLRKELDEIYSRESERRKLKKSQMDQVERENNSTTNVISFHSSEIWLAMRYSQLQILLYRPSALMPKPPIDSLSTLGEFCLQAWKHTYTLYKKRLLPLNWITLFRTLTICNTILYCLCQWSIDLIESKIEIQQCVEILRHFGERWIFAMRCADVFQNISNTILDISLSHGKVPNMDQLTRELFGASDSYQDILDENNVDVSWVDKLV
Outline: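 GST-tagged yeast TFs (full-length or DNA-binding domain) were made by PURExpress in vitro transcription/translation and applied at about 100-200 nM to universal all-10-mer Agilent arrays. The arrays were made double-stranded by primer extension, on fresh or once-stripped slides. Bound protein was detected with fluorescent anti-GST, and scans were normalised with masliner. Each ungapped eight-base word, pooled with its reverse complement, received an E-score (modified Wilcoxon-Mann-Whitney statistic) from the Universal PBM Analysis Suite.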

Row | Sequence | PBM E-score
1 | AGTTTTTG | -0.201
2 | GATTTACA | 0.0286
3 | GCACCGAC | 0.45
4 | CACTACGA | -0.07
5 | GAAGCTGA | -0.126
6 | AGATAACG | 0.201
7 | GGATTAGA | -0.0685
8 | GTCATAAC | 0.0967
9 | CCGGTTTA | 0.216
10 | AGGCCAGA | -0.148
11 | CATTTAAA | 0.176
12 | CCACCGGG | 0.26
13 | GAATCATA | -0.18
14 | AAAAGTGC | 0.101
15 | CATCACTA | -0.202
16 | CCCCGACG | 0.449
17 | CATAGCAC | 0.163
18 | AACATGTG | -0.0988
19 | CGGTGACA | 0.42
20 | CTAAACAG | -0.102
21 | AACCCGCG | 0.231
22 | CTAAAGAG | -0.105
23 | CTAGACGC | -0.0118
24 | CGTTACCA | -0.112
25 | CTTATTTC | 0.0536

Row | Sequence | PBM E-score
26 | ATTACTTA | -0.0191
27 | CCGTACCA | 0.171
28 | CAAAAGGG | -0.205
29 | TCTGCTCA | -0.183
30 | CGCCTTAC | 0.0363
31 | GAAAAGAC | 0.148
32 | GACAAATC | -0.0429
33 | CTAAGACA | 0.0369
34 | CCGGTTTC | 0.161
35 | GAAAAAAA | 0.0586
36 | AGGCCCTG | -0.111
37 | CGCGCTGA | 0.173
38 | AGCAGTCC | -0.136
39 | GACATTCA | 0.0858
40 | TTACTGAA | -0.0992
41 | CCGTATGA | 0.222
42 | GTACACGA | -0.148
43 | ATAGATAC | -0.144
44 | CCGAATTC | 0.2
45 | GGTAATTA | 0.185
46 | GACATGAC | -0.0655
47 | CGACGGCA | 0.299
48 | AAGCTCTA | -0.16
49 | ATCACGGG | 0.125
50 | CGCTGGAA | -0.0318

Row | Sequence | PBM E-score
51 | GGAAGTAA | 0.203
52 | CATTCCCC | 0.15
53 | CGGTTTTA | 0.41
54 | ACCATGTC | 0.0446
55 | CTGCTATA | 0.0793
56 | GCGTGACA | -0.0462
57 | CCTAAGCA | -0.137
58 | GCGCTGCC | -0.0367
59 | GAAATGCA | -0.0931
60 | CAATCGAG | -0.21
61 | AACTCGCT | -0.0283
62 | TACGATAA | -0.14
63 | CAAATTTC | -0.303
64 | GACCACTC | -0.174
65 | AGCTCGCA | -0.16
66 | AGCATCAT | -0.328
67 | ACATACCG | 0.28
68 | CTCGCGAA | -0.165
69 | GCCTGATA | -0.0578
70 | AAAGGAAG | 0.0433
71 | GTACCTCA | -0.226
72 | CTAGGCAC | -0.109
73 | GTGGAGGA | -0.0194
74 | CTGACTGC | -0.21
75 | GGAAATTA | 0.0778

Row | Sequence | PBM E-score
76 | CTCAGTCA | -0.3
77 | AGCTGGTA | -0.195
78 | GACACGCC | 0.0789
79 | TACTCAGA | -0.0731
80 | ACATCGAT | -0.171
81 | ATTAGAGC | 0.0887
82 | ACTAAGGA | -0.19
83 | CGGATAGC | -0.0155
84 | TCGCCCGA | -0.00426
85 | GATTTGAA | -0.132
86 | CCGTCAAA | 0.237
87 | ACAGTCTG | -0.226
88 | GAGAGCCC | -0.0648
89 | GAGCCAGA | -0.181
90 | GTAACGAC | 0.132
91 | CATTCTTC | -0.247
92 | TACCAAAA | -0.154
93 | AGATACGA | -0.144
94 | ATGGGCTG | -0.309
95 | CACTAGCA | -0.0502
96 | CGAATGGC | 0.0449
97 | TCGGCCAA | 0.00822
98 | CAGGGACG | -0.127
99 | TCGTGCCA | -0.205
100 | CGAACCGA | 0.137

Row | Sequence | PBM E-score
101 | AGTGGCGG | 0.292
102 | TAGCTCCA | 0.101
103 | CAGCCCAA | -0.168
104 | GGCCACGA | 0.111
105 | CCCACTGC | -0.0061
106 | CCACTTTC | -0.205
107 | AATCACCA | -0.0307
108 | ACAGGCCC | -0.175
109 | AACTAAAT | -0.177
110 | GTGAGCCA | -0.193
111 | CAATGGAA | 0.0674
112 | ATAAATAA | 0.109
113 | ATAAGTAA | 0.0773
114 | CCTCTTCA | -0.0873
115 | CCGTGAAA | -0.00057
116 | CTTTACTA | 0.0783
117 | CGGGATCC | 0.195
118 | ACGGTTTG | 0.0489
119 | AACTTGCA | -0.228
120 | GCCCCTGA | -0.155
121 | AGCGTGGG | -0.271
122 | AATTAGCC | -0.0645
123 | AGATTATG | 0.0753
124 | CCATCCCC | 0.0121
125 | ACATCATA | -0.0465

Row | Sequence | PBM E-score
126 | CACATGCG | -0.0615
127 | CTCTTAGA | 0.0208
128 | AGAAAAAC | 0.00925
129 | TCGTCACA | -0.138
130 | ATTACGAG | -0.196
131 | CCGGTCCC | 0.308
132 | AACCTACG | -0.144
133 | CAATATGG | 0.016
134 | CTCGACAA | -0.2
135 | GTTTTGGA | 0.0205
136 | ACCCGTGG | 0.0263
137 | ATCGATAA | -0.139
138 | ATCCTTAC | -0.12
139 | ATAGATGA | -0.00332
140 | CAGAGCCA | -0.355
141 | CGGGCAAA | 0.283
142 | AGGCTTTA | -0.0205
143 | ACACGGAA | 0.00647
144 | AGCATCGG | 0.214
145 | CGTTAGCA | 0.0642
146 | GGTTTCCA | 0.0443
147 | GACGAAAA | 0.0682
148 | AGCCGGCT | 0.213
149 | CTTAGCCC | 0.214
150 | AGGATCTG | -0.3

Row | Sequence | PBM E-score
151 | AGTTAGTA | -0.0553
152 | ACTGCTAC | -0.11
153 | GTTGTTAA | 0.0384
154 | GCTATAAA | 0.168
155 | CTTAGCAC | 0.0775
156 | TATGGAGA | -0.0821
157 | CCTGAATC | -0.0703
158 | GAATGATC | -0.177
159 | ACGTACCG | 0.176
160 | CGTTCGTA | -0.00665
161 | AGGTACCT | -0.277
162 | CGTAAGAG | 0.0393
163 | GCTAAGAA | -0.0209
164 | ACCATACA | -0.0607
165 | GAGAGCGC | -0.0261
166 | CGCGACCG | 0.173
167 | CAAGCCGG | 0.176
168 | TCGACTCA | -0.378
169 | ACGCCTAT | -0.198
170 | AAGCTTTC | -0.0152
171 | ATTTCCTA | -0.0241
172 | TCAGCAAA | -0.197
